Experimental data from PubChem BioAssay AID488969 (Vanderbilt High Throughput Screening Facility, 2010).
In all, about 110,000 compounds were measured (“z-score”: median about -0.1, highest 2% from about 2 on). This is one part of the list. Activity calls are given as the source filed them.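 The calls were made as follows: active = z-score in the third read window above 3 or below -3; inactive = the rest.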

Each molecule was assayed against Metabotropic glutamate receptor 8 (Rattus norvegicus) (UniProt P70579) (assay: rat mGluR8 modulators via GIRK flux, primary screen, cell-based, thallium flux, HTS (AID 488969)). Settings: HEK293 rat mGluR8, GIRK (G protein-gated inwardly rectifying potassium channel) thallium flux, FluoZin2; at 10 µM; stronger effect = higher value; submaximal glutamate (EC20) added with thallium.
Sequence of UniProt P70579 (P70579 whole entry, looked up): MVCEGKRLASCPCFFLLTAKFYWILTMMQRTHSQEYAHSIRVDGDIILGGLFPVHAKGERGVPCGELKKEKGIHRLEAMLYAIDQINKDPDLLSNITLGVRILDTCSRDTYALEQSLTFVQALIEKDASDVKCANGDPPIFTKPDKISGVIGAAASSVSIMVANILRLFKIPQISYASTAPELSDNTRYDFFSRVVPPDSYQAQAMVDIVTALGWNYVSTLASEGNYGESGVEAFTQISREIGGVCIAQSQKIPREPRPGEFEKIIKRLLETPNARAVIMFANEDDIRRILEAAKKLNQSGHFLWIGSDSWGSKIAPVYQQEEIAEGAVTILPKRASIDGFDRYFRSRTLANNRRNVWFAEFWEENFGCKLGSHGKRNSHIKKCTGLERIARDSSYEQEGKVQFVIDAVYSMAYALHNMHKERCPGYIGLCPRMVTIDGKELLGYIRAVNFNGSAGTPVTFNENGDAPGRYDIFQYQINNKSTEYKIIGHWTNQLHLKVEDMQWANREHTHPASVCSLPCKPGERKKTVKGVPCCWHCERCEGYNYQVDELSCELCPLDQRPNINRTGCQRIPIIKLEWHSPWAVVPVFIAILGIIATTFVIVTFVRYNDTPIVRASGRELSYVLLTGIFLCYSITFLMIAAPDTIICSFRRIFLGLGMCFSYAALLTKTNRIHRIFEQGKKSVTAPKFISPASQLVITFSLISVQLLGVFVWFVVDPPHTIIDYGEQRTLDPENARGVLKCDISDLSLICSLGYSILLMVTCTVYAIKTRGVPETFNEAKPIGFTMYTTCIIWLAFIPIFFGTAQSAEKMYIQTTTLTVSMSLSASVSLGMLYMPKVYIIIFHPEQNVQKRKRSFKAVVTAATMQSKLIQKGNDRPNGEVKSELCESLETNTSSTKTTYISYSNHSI

Going from CCCC(=O)N(C)c1nnc(-c2ccc(OC)cc2)s1 to COc1ccc(-c2nnc(SCC(=O)NC(C)c3ccccc3)o2)cc1 (stereo not given), the z-score falls from -0.0873 to -0.309.

Going from COc1cccc(NC(=O)COc2ccccc2C(N)=O)c1 to COc1cc(OC)nc(Oc2ccccc2C(=O)Oc2cccc(C)c2)n1, the z-score falls from -0.308 to -0.386.

Going from O=C1c2ccccc2C(=O)N1CCc1csc(-c2cccc(Cl)c2)n1 to Cc1cc(C)n(C(=O)CCN2C(=O)c3ccccc3C2=O)n1, the z-score falls from 0.0755 to -0.0349.

First: Cc1ccccc1-c1nc(CN2CCCC(C(=O)NCCCN3CCOCC3)C2)c(C)o1 (stereo not given)
Second: O=S(=O)(c1ccccc1)c1nc(-c2ccco2)oc1NCCN1CCOCC1
The z-score of the first is lower: -0.359 for the first, -0.00728 for the second.

Compared with CCN(CC)c1nc2ccccc2c(N)c1-c1ccccc1, CCc1c(O)nc(SCC(=O)Nc2ccccc2)n(-c2ccccc2)c1=O is higher in z-score: 0.0637 for the first, 0.0843 for the second.

First: O=C(CSc1nnnn1C1CCCCC1)NCCc1ccccc1
Second: CC1CCc2nc(NC(=O)CCSc3ccccc3)sc2C1 (stereo not given)
The z-score of the first is lower: -0.0619 for the first, 0.184 for the second.

Going from O=C(CSc1nc2ccccc2o1)N1c2ccccc2Sc2ccccc21 to O=C1Cn2c(nc3ccccc32)N1c1ccccc1F, the z-score falls from 0.265 to -0.0143.

Going from COc1ccc(CCNC(=O)C(C)Sc2ccccc2)cc1OC (stereo not given) to COc1ccccc1N1CCN(C(=O)COc2cc(C)ccc2C)CC1, the z-score falls from -0.118 to -0.57.

Going from Cc1ccc2nsnc2c1S(=O)(=O)NC1CC1 to COc1cc(/C=N/NC(=O)Nc2cccc3nsnc23)cc(OC)c1OC, the z-score falls from 0.516 to 0.0319.

Compared with O=C(NCc1ccc2c(c1)OCO2)C1CC(c2ccccc2O)=NO1 (stereo not given), O=C(Nc1sc2c(c1C(=O)c1ccccc1)CCCC2)c1cccnc1 is lower in z-score: 0.36 for the first, -0.389 for the second.

Compared with CC(=O)N1CCN(c2ccc(NC(=O)c3ccc(C)cc3)cc2)CC1, Cc1ccc(C(=O)NC(=S)Nc2ccc(S(=O)(=O)N(C)c3ccccc3)cc2)cc1 is higher in z-score: 0.245 for the first, 0.95 for the second.

First: Cc1cc(NC(=O)CCC(=O)N(c2ccccc2)C(C(=O)NCC2CCCO2)c2cccnc2)no1 (stereo not given)
Second: O=C(CN1C(=O)CC(c2ccco2)Sc2ccccc21)NCC1CCCO1 (stereo not given)
The z-score of the first is higher: -0.0594 for the first, -0.326 for the second.

Going from Cc1ccc(S(=O)(=O)CC(=O)c2ccc(C)c([N+](=O)[O-])c2)cc1 to CCCCC(=O)Nc1ccc(C(=O)NNC(=O)c2ccc(C)c(Br)c2)cc1, the z-score rises from -0.799 to -0.00519.

Compared with O=C1c2ccccc2NC(c2ccccc2)N1c1ccc(O)cc1 (stereo not given), COc1ccccc1NS(=O)(=O)c1cccc(NC(=O)c2ccc3ccccc3n2)c1 is higher in z-score: -0.733 for the first, 0.343 for the second.

Going from c1ccc(NC2=Nc3ccccc3CS2)cc1 to CSc1nnc(-c2cccs2)n1-c1ccccc1, the z-score falls from 0.634 to -0.228.

First: CC(C)CN(CC(C)C)C(=O)Cc1coc2ccc3ccccc3c12
Second: CN(C)c1nc2c(c(=O)n(C)c(=O)n2C)n1Cc1ccccc1
The z-score of the first is higher: 0.549 for the first, -0.149 for the second.

Compared with O=C1CCCC/C1=C/Nc1ccc(S(=O)(=O)Nc2ncccn2)cc1, CCNS(=O)(=O)c1ccc(CCC(=O)NC2CCCC2)cc1 is higher in z-score: -0.108 for the first, -0.104 for the second.

Compared with Cc1ccc(/C=N/N=C/c2ccc(C)cc2)cc1, Cc1ccc(C(=O)/C=C/Nc2ccccn2)cc1 is higher in z-score: 0.118 for the first, 0.718 for the second.

Compared with COc1ccc(N2C(=O)/C(=C/c3cccs3)NC2=S)cc1, CC1S/C(=C(\C#N)C(=O)NCc2ccco2)N(c2ccc(F)cc2)C1=O (stereo not given) is lower in z-score: 1.07 for the first, -0.184 for the second.

Compared with CCCCn1c(SCc2cccnc2)nc2c1c(=O)n(C)c(=O)n2C, Cc1cc(C)c2c(=O)[nH]c(=O)n(Cc3ccccc3)c2n1 is lower in z-score: -0.459 for the first, -1.72 for the second.

Compared with CC(=O)Nc1ccccc1NC(=O)CC(C)(C)C, COC(=O)CNC(c1ccccc1)c1cc(C)ccc1NC(=O)CNC(=O)OCc1ccccc1 (stereo not given) is lower in z-score: -0.0428 for the first, -0.608 for the second.

Going from CCN(CC)CCNC(=O)c1cn(CC)c2ccc(S(=O)(=O)N(C)C)cc2c1=O to CCN(CC)CCn1cnc2c([nH]c3cccc(OC)c32)c1=O, the z-score rises from -0.0651 to -0.0646.

Going from Cc1nc(NNC(=O)c2ccc(Cl)cc2Cl)cc(-c2ccccc2)n1 to CCOc1ccc(Nc2nc(Cc3nnc(SCC(=O)c4ccc(C)cc4)o3)cs2)cc1, the z-score rises from 0.141 to 0.418.

Compared with COc1ccc(CCNC(=O)C2CCN(c3ccc(N4CCOCC4)nn3)CC2)c(OC)c1, CCOC(=O)Cc1csc(NC(=O)CSc2nnnn2-c2ccc(CC)cc2)n1 is higher in z-score: -0.106 for the first, 1.16 for the second.

Compared with CCOC(=O)c1c(C)[nH]c(C(=O)CSc2nnc(C3CC3)n2N)c1C, CCCOC(=O)C1C2C=CC3(CN(c4cccc(Cl)c4)C(=O)C13)O2 (stereo not given) is higher in z-score: -1.17 for the first, 0.308 for the second.

Going from O=C(NC1CCCC1)c1ccc(COCC(F)(F)C(F)F)o1 to Clc1ccc(C2=NNC(=NCC3CCCO3)SC2)cc1 (stereo not given), the z-score falls from -0.0137 to -0.14.

For CCCNC(=O)COC(=O)/C=C/c1ccco1, the z-score was -0.162.

In the case of CC1=C(n2nnc3ccccc32)C(c2ccccc2)C(C#N)=C(N)O1 (stereo not given), the z-score is reported as active: 3.38.
For Cc1csc(NC(=O)C(Cc2ccccc2)n2cccc2)n1 (stereo not given), the z-score was active: 5.2.
